# Data reported in PubChem BioAssay (NCATS).
# Values joined by “and” are separate entries in the source; they are usually repeats but may differ in a detail not shown here. Equal values may be shown once. This is one part of the list. Further columns of the screen follow, without active or inactive calls. For some assays here: Most of these compounds were active or inconclusive in the main read-out, so they are no random draw. Potencies come from curve fits of mixed quality, noted in brackets.
# Biological target: Phenylethanolamine N-methyltransferase (Homo sapiens) (UniProt P11086)
# Experiment: Confirmatory Screen for Target Class Profiling of Small Molecule Inhibitors of Methyltransferases (AID 1745852);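 note: inhibitor potency for blocking SAH production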
# Settings: MTase-Glo luminescence, SAH detection, recombinant enzyme; measured here: PNMT inhibition potency
# Tags give direction and shape of the fitted curve.
# Sequence of UniProt P11086 (P11086 whole entry, looked up): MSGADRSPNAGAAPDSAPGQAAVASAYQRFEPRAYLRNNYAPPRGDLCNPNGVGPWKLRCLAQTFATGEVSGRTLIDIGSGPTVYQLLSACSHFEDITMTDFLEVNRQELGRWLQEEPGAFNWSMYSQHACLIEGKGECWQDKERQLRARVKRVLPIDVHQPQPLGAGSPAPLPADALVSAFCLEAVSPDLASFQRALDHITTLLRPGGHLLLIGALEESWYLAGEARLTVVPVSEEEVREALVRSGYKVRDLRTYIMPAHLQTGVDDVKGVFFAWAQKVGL
row,Structure (SMILES),IC50
1,CC(C)N(C[C@H]1O[C@@H](n2cnc3c(N)ncnc32)[C@H](O)[C@@H]1O)C1CC(CCc2nc3ccc(C(C)(C)C)cc3[nH]2)C1 (some centres not stated),"5.41 µM [falling, full curve] and 6.07 µM [falling, full curve]"
2,Nc1nc(NCC2CCC(CNS(=O)(=O)c3cccc4ccccc34)CC2)nc2ccccc12 (configuration not stated),"17.1 µM [falling, partial curve, poor fit]"
3,N#Cc1ccc(COC[C@H]2O[C@@H](n3c(NCc4ccc(Cl)c(Cl)c4)nc4c(N)ncnc43)[C@H](O)[C@@H]2O)cc1,"8.35 µM [falling, partial curve]"
4,CN(C)c1nc(NC2CCC(NCCc3ccc(Br)cc3OC(F)(F)F)CC2)nc2ccccc12 (configuration not stated),"21.5 µM [falling, partial curve]"
5,Oc1cccc(Nc2ccnc3[nH]c4ccccc4c23)c1,"19.2 µM [falling, partial curve, poor fit]"
6,N#Cc1cnc2c(Cl)cc(NCc3cn(CCN4CCCCCC4)nn3)cc2c1Nc1ccc(F)c(Cl)c1,"21.5 µM [falling, partial curve]"
7,NCCCNc1ccc(Nc2nccc(Nc3cc(C4CC4)[nH]n3)n2)cc1,"21.5 µM [falling, partial curve]"
8,Nc1ncnc2c1c(-c1cccc(OCc3ccccc3)c1)cn2C1CC(CN2CCC2)C1 (configuration not stated),"9.61 µM [falling, partial curve]"
9,Cc1cc(O)c(-c2ccc([C@@H](C)CN(C)C)cc2)c2c1[nH]c(=O)c1sccc12,"24.1 µM [falling, partial curve]"
10,CC[C@@H]1C(=O)N(C)c2cnc(Nc3ccc(C(=O)NC4CCN(C)CC4)cc3OC)nc2N1C1CCCC1,"21.7 µM [falling, partial curve]"
11,CCCCNc1ncc(C(=O)NCc2ccc(-n3ccnc3)cc2)c(NC2CCC(O)CC2)n1 (configuration not stated),"19.2 µM [falling, partial curve]"
12,Cc1ccccc1Sc1ccc(/C=C2\SC(=S)NC2=O)cc1[N+](=O)[O-],"27.1 µM [falling, single point]"
13,CCn1c2ccccc2c2cc(Nc3ccnc(NCCCN4CCOCC4)n3)ccc21,"24.1 µM [falling, partial curve, poor fit]"
14,N#C/C(=C1\Nc2ccccc2S1)c1ccnc(NCCc2cccnc2)n1,"21.5 µM [falling, partial curve, poor fit]"

# Test system: not listed separately
# Experiment: qHTS drug screen for cell cycle checkpoint inhibitors in PARPi-resistant BRCA-mutant ovarian cancer cell lines. (AID 1963452)
# Settings: PEO1/OlaR viability, CellTiter-Glo luminescence, 96 h; measured here: PEO1 parental viability
# Outline: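 PEO1, PEO4 and PEO1/OlaR ovarian cancer cells, 600 per well, exposed 96 h at 37C to a dilution series. Viability read by CellTiter-Glo luminescence, normalized to DMSO and empty wells; activity summarized as Z-AUC.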
row,Structure (SMILES),AC50
1,CC(C)N(C[C@H]1O[C@@H](n2cnc3c(N)ncnc32)[C@H](O)[C@@H]1O)C1CC(CCc2nc3ccc(C(C)(C)C)cc3[nH]2)C1 (some centres not stated),"0.123 µM [rising, full curve, poor fit]"
2,c1ccc(Cn2c(-c3ccc(OCC(C4CCNCC4)n4c(-c5ccccc5)nc5ccccc54)cc3)nc3ccccc32)cc1 (configuration not stated),"19.5 µM [falling, single point]"
3,Nc1nccc(Oc2ccc(NC(=O)c3c[nH]cc(-c4ccc(F)cc4)c3=O)cc2F)c1Cl,"15.5 µM [falling, partial curve]"
4,C=CC(=O)Nc1cccc(Nc2nc(Nc3ccc(Oc4ccnc(C(=O)NC)c4)cc3)ncc2F)c1,"15.5 µM [falling, partial curve]"
5,Nc1ncnc2c1c(-c1cccc(OCc3ccccc3)c1)cn2C1CC(CN2CCC2)C1 (configuration not stated),"15.5 µM [falling, partial curve]"
6,Cc1cc(O)c(-c2ccc([C@@H](C)CN(C)C)cc2)c2c1[nH]c(=O)c1sccc12,"0.195 µM [falling, full curve]"
7,CCNC(=O)C#Cc1ccc2c(C(=Nc3ccc(CN(C)C)cc3)c3ccccc3)c(O)[nH]c2c1,"0.379 µM [falling, full curve]"
8,CC[C@@H]1C(=O)N(C)c2cnc(Nc3ccc(C(=O)NC4CCN(C)CC4)cc3OC)nc2N1C1CCCC1,"0.0155 µM [falling, full curve]"
9,CCS(=O)(=O)c1cccc(-c2cc(C(=O)NC3CCN(C)CC3)c(C)c3[nH]c4ncc(C)cc4c23)c1,"1.38 µM [falling, full curve]"
10,CNC1CCC(N(Cc2cccc(-c3ccncc3)c2)C(=O)c2sc3ccccc3c2Cl)CC1 (configuration not stated),"15.5 µM [falling, single point]"
11,CC(C)CNc1ccnc(NCc2csc(-c3ccccc3)n2)n1,"1.95 µM [falling, full curve]"
12,CN1CCN(CCOc2cc(OC3CCOCC3)c3c(Nc4c(Cl)ccc5c4OCO5)ncnc3c2)CC1,"15.5 µM [falling, partial curve]"
13,Cc1cnc(Nc2ccc(OCCN3CCCC3)cc2)nc1Nc1cccc(S(=O)(=O)NC(C)(C)C)c1,"5.49 µM [falling, full curve]"
14,CCn1cc(-c2ccnc3[nH]c(-c4cccc(CN(C)C)c4)cc23)c(-c2ccc(NC(=O)N(C)C)cc2)n1,"6.92 µM [falling, partial curve]"
15,CNCCN(C)Cc1cn[nH]c1-c1ccc(OC2CC(OCCC3CCOCC3)C2)cc1 (configuration not stated),"6.92 µM [falling, partial curve]"
16,C=CC(=O)Nc1cccc(Oc2nc(Nc3ccc(N4CCN(C)CC4)cc3)ncc2Cl)c1,"1.55 µM [falling, full curve]"
17,COc1cc(N2CCC(N)CC2)ccc1Nc1ncc(Cl)c(-c2c[nH]c3ccccc23)n1,"1.95 µM [falling, full curve]"
18,Cc1c[nH]c2ncnc(N3CCC(CN)(C(=O)Nc4cccc(OC(=O)N(C)C)c4)CC3)c12,"0.616 µM [falling, partial curve, poor fit]"
